The record followed here is US20220106389A1 (BEIJING BEYOND BIOTECHNOLOGY, published 2022).

Experiment [1] concerns the target T1, Recombinant human CTLA-4 (human, UniProt P16410 37-162).
T1 construct: Bought protein; also called hCTLA-4
T1 sequence (looked up): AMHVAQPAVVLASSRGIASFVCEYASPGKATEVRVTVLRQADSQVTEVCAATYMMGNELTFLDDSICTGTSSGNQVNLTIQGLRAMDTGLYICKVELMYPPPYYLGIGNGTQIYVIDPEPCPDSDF
As to the kind of experiment: ELISA, plate coated with recombinant human CTLA-4, anti-human HRP detection. In general terms: In an ELISA, binding on a coated surface is turned into a signal by an enzyme label.

Experiment [2] concerns the target T2, Recombinant human PD-L1 (human, UniProt Q9NZQ7 part only).
T2 construct: Bought protein; also called hPD-L1
T2 sequence (Q9NZQ7 19-238 limits assumed): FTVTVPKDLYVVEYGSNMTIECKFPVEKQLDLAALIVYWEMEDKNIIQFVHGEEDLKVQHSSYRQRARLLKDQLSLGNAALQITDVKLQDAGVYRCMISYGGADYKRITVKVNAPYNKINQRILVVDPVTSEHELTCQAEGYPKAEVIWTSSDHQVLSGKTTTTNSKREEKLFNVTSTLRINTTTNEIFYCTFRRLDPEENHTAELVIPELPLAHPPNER
Description: ELISA, plate coated with recombinant human PD-L1, anti-human HRP detection.

B1: Fusion protein BY24.4 (other)
light: DIQMTQSPSSLSASVGDRVTITCSASQDISNYLNWYQQKPGKAPKVLIYFTSSLHSGVPSRFSGSGSGTDFTLTISSLQPEDFATYYCQQYSTVPWTFGQGTKVEIKRTVAAPSVFIFPPSDEQLKSGTASVVCLLNNFYPREAKVQWKVDNALQSGNSQESVTEQDSKDSTYSLSSTLTLSKADYEKHKVYACEVTHQGLSSPVTKSFNRGEC
heavy: EVQLVESGGGLVQPGGSLRLSCAASGYTFTNYGMNWVRQAPGKGLEWVGWINTYTGEPTYAADFKRRFTFSLDTSKSTAYLQMNSLRAEDTAVYYCAKYPHYYGSSHWYFDVWGQGTLVTVSSASTKGPSVFPLAPCSRSTSESTAALGCLVKDYFPEPVTVSWNSGALTSGVHTFPAVLQSSGLYSLSSVVTVPSSSLGTKTYTCNVDHKPSNTKVDKRV[human IgG4 Fc with S228P (EU numbers) left out here]GGGSGGGGSGGGGSVIHVTKEVKEVATLSCGHNVSVEELAQTRIYWQKEKKMVLTMMSGDMNIWPEYKNRTIFDITNNLSIVILALRPSDEGTYECVVLKYEKDAFKREHLAEVTLSVKADFPTPS
notes: Full-length anti-VEGF antibody (kappa, IgG4) with CD80 IgV fused through a (G4S)3 linker to the C-terminus of each heavy chain; also called anti-VEGF antibody-CD80 fusion protein; BY24.4 (κ, IgG4)
By EC50 is commonly meant the concentration at which the effect is half-maximal. On to B1, for which the figures for the EC50 in experiment [1] and in experiment [2] were 2.27 µg/mL and 6.35 µg/mL, respectively.
